Data from the supplement of paper PMC8728848.
The list shows a part of the results.

Columns and labels:
Experiment in all cases: glycan array binding signal (z-score within array); higher = stronger binding
Conditions in all cases: glycan notation: IUPAC condensed, linker removed
[1] = target: Gal(b1-3)[GlcNAc(b1-6)]GalNAc
Summary of the method: (§1)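 The binding signal is a Z-score computed within each array and averaged over linkers. Arrays of the same protein sequence at different concentrations or buffers were also averaged together. Data originate from 3228 arrays in the Consortium for Functional Glycomics database, kept only where the protein sequence was available.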

[2] = target: Gal(b1-3)[Neu5Ac(a2-6)]GalNAc
Summary of the method: as §1

[3] = target: Gal(b1-3)[Neu5Ac(a2-6)]GlcNAc(b1-4)Gal(b1-4)Glc
Summary of the method: as §1

[4] = target: Gal(b1-3)[Neu5Ac(b2-6)]GalNAc
Summary of the method: as §1

[5] = target: Gal(b1-4)GalNAc(a1-3)[Fuc(a1-2)]Gal(b1-4)GlcNAc
Summary of the method: as §1

Gal(b1-4)Glc = target: Gal(b1-4)Glc
Summary of the method: as §1

Gal(b1-4)Glc6S = target: Gal(b1-4)Glc6S
Summary of the method: as §1

Gal(b1-4)GlcNAc = target: Gal(b1-4)GlcNAc
Summary of the method: as §1

[6] = target: Gal(b1-4)GlcNAc(b1-3)Gal(b1-4)Glc
Summary of the method: as §1

[7] = target: Gal(b1-4)GlcNAc(b1-3)Gal(b1-4)GlcNAc
Summary of the method: as §1

[8] = target: Gal(b1-4)GlcNAc(b1-3)Gal(b1-4)GlcNAc(b1-3)Gal(b1-4)GlcNAc
Summary of the method: as §1

[9] = target: Gal(b1-4)GlcNAc(b1-3)Gal(b1-4)[Fuc(a1-3)]GlcNAc(b1-3)Gal(b1-4)[Fuc(a1-3)]GlcNAc
Summary of the method: as §1

[10] = target: Gal(b1-4)GlcNAc(b1-3)GalNAc
Summary of the method: as §1

[11] = target: Gal(b1-4)GlcNAc(b1-3)[Gal(b1-4)GlcNAc(b1-6)]GalNAc
Summary of the method: as §1

[12] = target: Gal(b1-4)GlcNAc(b1-6)GalNAc
Summary of the method: as §1

[13] = target: Gal(b1-4)GlcNAc(b1-6)[Gal(b1-3)]GalNAc
Summary of the method: as §1

Gal3S(b1-3)GalNAc = target: Gal3S(b1-3)GalNAc
Summary of the method: as §1

Gal3S(b1-3)GlcNAc = target: Gal3S(b1-3)GlcNAc
Summary of the method: as §1

[14] = target: Gal3S(b1-3)[Fuc(a1-4)]GlcNAc
Summary of the method: as §1

Gal3S(b1-4)Glc = target: Gal3S(b1-4)Glc
Summary of the method: as §1

Gal3S(b1-4)Glc6S = target: Gal3S(b1-4)Glc6S
Summary of the method: as §1

Gal3S(b1-4)GlcNAc = target: Gal3S(b1-4)GlcNAc
Summary of the method: as §1

Gal4S(b1-4)GlcNAc = target: Gal4S(b1-4)GlcNAc
Summary of the method: as §1

Gal6S(b1-4)Glc = target: Gal6S(b1-4)Glc
Summary of the method: as §1

Gal6S(b1-4)Glc6S = target: Gal6S(b1-4)Glc6S
Summary of the method: as §1

GalNAc(a1-3)Gal = target: GalNAc(a1-3)Gal
Summary of the method: as §1

GalNAc(a1-3)GalNAc = target: GalNAc(a1-3)GalNAc
Summary of the method: as §1

GalNAc(b1-3)GalNAc = target: GalNAc(b1-3)GalNAc
Summary of the method: as §1

GalNAc(b1-4)GlcNAc = target: GalNAc(b1-4)GlcNAc
Summary of the method: as §1

Glc(a1-4)Glc = target: Glc(a1-4)Glc
Summary of the method: as §1

Glc(b1-4)Glc = target: Glc(b1-4)Glc
Summary of the method: as §1

Glc(b1-6)Glc = target: Glc(b1-6)Glc
Summary of the method: as §1

[15] = target: GlcNAc(b1-2)Gal(b1-3)GalNAc
Summary of the method: as §1

GlcNAc(b1-3)Gal = target: GlcNAc(b1-3)Gal
Summary of the method: as §1

[16] = target: GlcNAc(b1-3)Gal(b1-3)GalNAc
Summary of the method: as §1

GlcNAc(b1-3)Gal(b1-4)Glc = target: GlcNAc(b1-3)Gal(b1-4)Glc
Summary of the method: as §1

[17] = target: GlcNAc(b1-3)Gal(b1-4)GlcNAc
Summary of the method: as §1

[18] = target: GlcNAc(b1-3)[GlcNAc(b1-6)]GalNAc
Summary of the method: as §1

[19] = target: GlcNAc(b1-3)[GlcNAc(b1-6)]GlcNAc(b1-4)GlcNAc
Summary of the method: as §1

[20] = target: GlcNAc(b1-4)GlcNAc(b1-4)GlcNAc
Summary of the method: as §1

[21] = target: GlcNAc(b1-4)[GlcNAc(b1-6)]GalNAc
Summary of the method: as §1

GlcNAc(b1-6)GalNAc = target: GlcNAc(b1-6)GalNAc
Summary of the method: as §1

Kdn(a2-3)Gal(b1-3)GlcNAc = target: Kdn(a2-3)Gal(b1-3)GlcNAc
Summary of the method: as §1

Kdn(a2-3)Gal(b1-4)GlcNAc = target: Kdn(a2-3)Gal(b1-4)GlcNAc
Summary of the method: as §1

[22] = target: Man(a1-2)Man(a1-2)Man(a1-3)Man
Summary of the method: as §1

B1: RegIIIalpha (Mus musculus), O09037 (protein)
chain: MLPHLVLNSISWMLLSCLLFVFQVQGEDFQKEVPSPRTSCPMGYKAYRSHCYALVMTPKSWFQADLVCQKRPSGHLVSILSGGEASFVSSLVNGRVDNYQDIWIGLHDPTMGQQPNGGGWEWSNSDVLNYLNWDGDPSSTVNRGHCGSLTASSGFLKWGDYYCDGTLPFVCKFKQ
- glycan array binding signal (z-score) [1]: -0.096
- glycan array binding signal (z-score) [2]: -0.094
- glycan array binding signal (z-score) [3]: -0.067
- glycan array binding signal (z-score) [4]: -0.086
- glycan array binding signal (z-score) [5]: -0.078
- glycan array binding signal (z-score) (Gal(b1-4)Glc): -0.084
- glycan array binding signal (z-score) (Gal(b1-4)Glc6S): -0.092
- glycan array binding signal (z-score) (Gal(b1-4)GlcNAc): -0.086
- glycan array binding signal (z-score) [6]: -0.08
- glycan array binding signal (z-score) [7]: -0.096
- glycan array binding signal (z-score) [8]: -0.097
- glycan array binding signal (z-score) [9]: -0.061
- glycan array binding signal (z-score) [10]: -0.094
- glycan array binding signal (z-score) [11]: -0.098
- glycan array binding signal (z-score) [12]: -0.096
- glycan array binding signal (z-score) [13]: -0.094
- glycan array binding signal (z-score) (Gal3S(b1-3)GalNAc): -0.099
- glycan array binding signal (z-score) (Gal3S(b1-3)GlcNAc): -0.094
- glycan array binding signal (z-score) [14]: -0.098
- glycan array binding signal (z-score) (Gal3S(b1-4)Glc): -0.096
- glycan array binding signal (z-score) (Gal3S(b1-4)Glc6S): -0.093
- glycan array binding signal (z-score) (Gal3S(b1-4)GlcNAc): -0.095
- glycan array binding signal (z-score) (Gal4S(b1-4)GlcNAc): 0.116
- glycan array binding signal (z-score) (Gal6S(b1-4)Glc): -0.072
- glycan array binding signal (z-score) (Gal6S(b1-4)Glc6S): -0.076
- glycan array binding signal (z-score) (GalNAc(a1-3)Gal): -0.101
- glycan array binding signal (z-score) (GalNAc(a1-3)GalNAc): -0.092
- glycan array binding signal (z-score) (GalNAc(b1-3)GalNAc): -0.099
- glycan array binding signal (z-score) (GalNAc(b1-4)GlcNAc): -0.095
- glycan array binding signal (z-score) (Glc(a1-4)Glc): -0.076
- glycan array binding signal (z-score) (Glc(b1-4)Glc): -0.087
- glycan array binding signal (z-score) (Glc(b1-6)Glc): -0.091
- glycan array binding signal (z-score) [15]: -0.08
- glycan array binding signal (z-score) (GlcNAc(b1-3)Gal): -0.095
- glycan array binding signal (z-score) [16]: -0.088
- glycan array binding signal (z-score) (GlcNAc(b1-3)Gal(b1-4)Glc): -0.081
- glycan array binding signal (z-score) [17]: -0.094
- glycan array binding signal (z-score) [18]: -0.091
- glycan array binding signal (z-score) [19]: -0.081
- glycan array binding signal (z-score) [20]: -0.099
- glycan array binding signal (z-score) [21]: -0.085
- glycan array binding signal (z-score) (GlcNAc(b1-6)GalNAc): -0.095
- glycan array binding signal (z-score) (Kdn(a2-3)Gal(b1-3)GlcNAc): -0.055
- glycan array binding signal (z-score) (Kdn(a2-3)Gal(b1-4)GlcNAc): -0.008
- glycan array binding signal (z-score) [22]: -0.083
